Assay results from a compilation of properties of binary mixtures (doi:10.1016/j.molliq.2021.116805).
The densities may have been worked out from excess volumes.

Test: xn = mol fraction of the nth substance listed
Conditions: 101 kPa

Work on `CCCCCCCCCCCCCCCCCC[n+]1ccn(C)c1.O=S(=O)([N-]S(=O)(=O)C(F)(F)F)C(F)(F)F` + CCCCCCCCCCCCCCCCn1cc[n+](C)c1.O=S(=O)([N-]S(=O)(=O)C(F)(F)F)C(F)(F)F yielded a mass density (333 K, x2 = 0.621) of 1149.9 kg/m3, a mass density (343 K, x2 = 0.621) of 1141.9 kg/m3 and a mass density (353 K, x2 = 0.621) of 1134 kg/m3.
`CCCCCCCCCCCCCC[n+]1ccn(C)c1.O=S(=O)([N-]S(=O)(=O)C(F)(F)F)C(F)(F)F` + CCCCCCCCCCCCCCCCn1cc[n+](C)c1.O=S(=O)([N-]S(=O)(=O)C(F)(F)F)C(F)(F)F showed a mass density (313 K, x1 = 0.6709) of 1192.5 kg/m3, a mass density (323 K, x1 = 0.6709) of 1184.3 kg/m3 and a mass density (333 K, x1 = 0.6709) of 1176.2 kg/m3. The mass density (343 K, x1 = 0.6709) was 1168.1 kg/m3 and the mass density (353 K, x1 = 0.6709) was 1160.1 kg/m3.
For `CCCCCCCCCCCCCCCCCC[n+]1ccn(C)c1.O=S(=O)([N-]S(=O)(=O)C(F)(F)F)C(F)(F)F` + CCCCCCCCCCCCCC[n+]1ccn(C)c1.O=S(=O)([N-]S(=O)(=O)C(F)(F)F)C(F)(F)F, the mass density (333 K, x2 = 0.7675) was 1174.1 kg/m3, the mass density (343 K, x2 = 0.7675) was 1165.9 kg/m3 and the mass density (353 K, x2 = 0.7675) was 1157.9 kg/m3.
